PubChem BioAssay AID1159614 (National Center for Advancing Translational Sciences (NCATS), 2016)
In all, about 45,000 compounds went through this assay and about 65 (0.1%) were called active. Calls follow the shape of the dose curve; as a rule, active = well fitted activation curve with a large enough effect; inconclusive = small, poorly fitted or top-dose-only effect; inactive = no such curve, though single readings can be large or run the other way. Some of the results follow.

These compounds were tested against Galactocerebrosidase (Homo sapiens) (UniProt P54803) (assay: A Novel Cell-Based Assay to Identify Small Molecules for B -Galactocerebrosidase). Conditions: 145M-Twi-hGALC-G270D cells (Twitcher mouse brain line with human GALC G270D), HMU-beta-Gal fluorescence, 48 h; series mostly up to 57.5 µM; activation: at the top concentration.
Chain of UniProt P54803 (P54803 whole entry, looked up): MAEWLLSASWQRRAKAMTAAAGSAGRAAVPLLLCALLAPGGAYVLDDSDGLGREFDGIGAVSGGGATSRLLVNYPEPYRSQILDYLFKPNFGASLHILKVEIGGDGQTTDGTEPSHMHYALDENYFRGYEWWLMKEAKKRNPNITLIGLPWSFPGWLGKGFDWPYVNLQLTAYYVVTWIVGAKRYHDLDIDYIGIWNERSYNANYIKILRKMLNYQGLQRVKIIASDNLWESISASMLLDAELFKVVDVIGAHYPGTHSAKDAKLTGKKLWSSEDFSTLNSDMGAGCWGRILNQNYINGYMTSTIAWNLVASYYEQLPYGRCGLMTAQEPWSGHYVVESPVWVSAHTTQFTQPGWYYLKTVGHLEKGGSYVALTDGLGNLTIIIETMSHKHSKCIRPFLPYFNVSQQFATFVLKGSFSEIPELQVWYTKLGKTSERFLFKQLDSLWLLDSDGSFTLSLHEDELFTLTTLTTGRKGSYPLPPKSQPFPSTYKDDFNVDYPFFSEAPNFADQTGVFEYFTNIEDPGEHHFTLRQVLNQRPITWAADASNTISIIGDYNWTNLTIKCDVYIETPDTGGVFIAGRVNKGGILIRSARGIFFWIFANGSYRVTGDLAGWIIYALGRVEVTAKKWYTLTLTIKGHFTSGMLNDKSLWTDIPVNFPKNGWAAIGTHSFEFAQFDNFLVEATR
How it was run: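 Brain-derived Twitcher mouse 145M-Twi cells stably expressing human GALC-G270D or wild-type GALC, treated live, then residual GALC activity read by fluorescence of HMU-b-Gal substrate (0.1 mM final) in citrate-phosphate buffer pH 5.2 with sodium taurocholate. Signal increase indicates enhancement.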
Also: 0% is about no effect; nearly all actives have a fitted effect of over 65% in size.

activation, inactive:
COc1ccc(OC)c(CCNC(=O)c2cc3c(s2)-c2c(C)cccc2OC3)c1 -8.49%, Cc1ccc(-n2c(=O)c3sc4ccccc4c3n(CC(=O)NC3CCCC3)c2=O)cc1C -13.3%, Cc1ccc(NC(=O)Cn2c(=O)n(Cc3ccccc3)c(=O)c3sc4ccccc4c32)cc1 -9.82%, Cc1ccc(Nc2c(-c3c[nH]c4ccccc34)nc3ccccn23)cc1 -13.7%, Cc1ccc2oc(=O)c3cnn(CC(=O)N4CCN(c5ccc(F)cc5)CC4)c3c2c1 -14.9%, CC(C)Oc1ccccc1-c1nc(SCC(=O)c2ccc(F)cc2)n[nH]1 -0.0033%, CCOc1ccc(CNC(=O)c2ccc3c(c2)c(C)c(C)n3Cc2ccccc2)cc1OC -9.36%, CCS(=O)(=O)c1ncc(N(Cc2ccccc2)Cc2ccco2)c(C(=O)Nc2cccc(Cl)c2C)n1 -21.6%, COc1ccccc1C(=O)Nc1ccc2nc(SCC(=O)N(C)c3ccccc3)sc2c1 -2.97%, Cc1c(Cl)cccc1-c1ccc(CNCCSc2nnnn2-c2ccccc2)o1 -13.5%, CCOc1ccc(NC(=O)C(Cc2ccccc2)NS(=O)(=O)c2ccc3c(c2)oc(=O)n3C)cc1 (stereo not given) 17.3%, O=C(CN1C(=O)C2(SCC(=O)N2c2cccc(Cl)c2)c2ccccc21)NCCc1ccccc1 (stereo not given) -21.8%, CCOc1ccc(NC(=O)c2c(Nc3ccccc3C)sc(C(=O)c3ccccc3)c2N)cc1 -3.81%, CCN(CC)S(=O)(=O)c1ccc(NC(=O)CN(c2ccccc2)S(=O)(=O)N(C)C)cc1 -18.6%, Cc1ccc(-n2ncc(C(=O)N3CCN(c4cc(Cl)ccc4C)CC3)c2C2CCN(C(=O)OC(C)(C)C)CC2)cc1 -6.18%, Cc1ccc(C)c(Cn2c3ccccc3c3cnn(CC(=O)NC(C)CCc4ccccc4)c(=O)c32)c1 (stereo not given) -17%, COc1ccc(CCNC(=O)c2ccc3c(c2)N(Cc2ccccc2)C(=O)c2ccccc2S3=O)cc1OC (stereo not given) 6.07%, COC(=O)c1ccc(Cl)cc1NC(=O)Nc1nnc(N2CCCC2)s1 -19.1%, Cc1cccc(OCC(=O)Nc2ccccc2C(=O)OCc2cc(=O)n3ccsc3n2)c1 -19.1%, Cc1cccc(CNC(=O)Cn2c(-c3cccs3)cc3ccccc32)c1 13.7%, COc1cccc(NC(=O)CN2C(=O)c3cccc4cccc2c34)c1 -8.96%, Cn1ncc2c(Nc3cc(C(F)(F)F)ccc3Cl)ncnc21 -11.7%, COC(=O)CSc1ncc2c(n1)-c1ccccc1N(Cc1ccc(Cl)cc1)S2(=O)=O -36.8%, COc1ccc(CCn2c3c(c(=O)[nH]c2=O)C(NC(=O)c2ccc(Cl)cc2)(C(F)(F)F)C(=O)N3)cc1OC (stereo not given) -11.2%, COc1ccc(CNc2ncnc3c2nc2n3CCCC2)cc1 5.64%, COc1ccc2c(c1)c1c(c(=O)n(-c3ccccc3C)c(=O)n1Cc1cccc(C(F)(F)F)c1)n2C -13.6%, CC(C)OC(=O)c1ccc(Cn2nnc3sc4c(c3c2=O)CCCC4)cc1 -7.03%, CC1CCN(C(=O)CSc2n[nH]c(-c3ccc(F)cc3)n2)CC1 -6.46%, CCc1ccc(-n2nnc(-c3nc(-c4cccs4)no3)c2N)cc1 -6.86%, CCCN(c1c(C)n(C)n(-c2ccccc2)c1=O)S(=O)(=O)c1ccc(C)cc1 -13.2%, O=C(Cn1ccnc1[N+](=O)[O-])NCCO -10.5%, CC(NC(=O)c1ccc2c(c1)N(Cc1ccc(Cl)cc1)C(=O)CS2)c1ccccc1 (stereo not given) -8.16%, CCN(c1cccc(C)c1)S(=O)(=O)c1cc(Br)cc2c1N(C(C)=O)C(C)C2 (stereo not given) -12.1%, CC(=O)Nc1ccc(S(=O)(=O)NC2(C(F)(F)F)C(=O)Nc3c2c(=O)[nH]c(=O)n3-c2cccc(Cl)c2)cc1 (stereo not given) -10.7%, CCOC(=O)c1cnc2cc(C(F)(F)F)ccc2c1Nc1ccc(F)cc1F -25.1%, CCC(=O)N1CCc2cc(CNS(=O)(=O)c3cc(OC)ccc3OC)ccc21 -10.6%, Cc1ccc(S(=O)(=O)NCC2CCC(C(=O)NCCc3ccccc3)CC2)cc1 (stereo not given) -15.3%, CCc1nc2ccc(C(=O)N3CCN(c4cc(Cl)ccc4C)CC3)cc2nc1CC -15.1%, CC(C)(C)C(=O)Nc1ccc(-c2nc3ccc(NC(=O)C(C)(C)C)cc3[nH]2)cc1 -21.1%, Oc1ccc(Cl)cc1C1=Nc2ccccc2N=C(c2ccccc2)C1 3.11%, Cc1ccc(CSc2nc3cccnc3n2Cc2ccc(C(=O)NCc3ccco3)cc2)cc1 -11%, O=C(c1ccc(F)cc1)c1cn(Cc2ccccc2F)c2cc3c(cc2c1=O)OCCO3 -17.8%, Cc1cccc(-c2nc(CN3CCCC(C(=O)N4CCN(c5cc(Cl)ccc5C)CC4)C3)c(C)o2)c1 (stereo not given) -9.28%, COc1cccc(-n2c(SCc3cccc(C)c3)nc3c([nH]c4ccccc43)c2=O)c1 -9.23%, CCOCc1cc(CN2CCN(c3cccc(C(F)(F)F)c3)CC2)c(O)c2ncccc12 -12.2%, CCOc1ccc(-n2ccnc2SCC(=O)Nc2cc(C)ccc2C)cc1 -11.6%, O=C(C1CCC1)N1CCCc2cc(S(=O)(=O)N3CCN(c4cccc(Cl)c4)CC3)ccc21 -17.1%, Cc1onc(-c2ccccc2Cl)c1C(=O)Oc1ccc(Cl)cc1Cl -5.98%, CCOc1ccccc1NC(=O)COC(=O)CC(C)(C)CC1=NS(=O)(=O)c2ccccc2N1 -8.25%, Cc1ccc(C)c(NC(=O)C(=O)NCCCN2CCOCC2)c1 -10.6%, CCOc1ccc(CCNC(=O)c2cnc3c(-c4ccc(F)cc4)c(C)nn3c2C)cc1 -4.53%, O=C(NCCCN1CCN(c2ccccc2)CC1)c1sc2ncccc2c1-n1cccc1 -15.8%, CN1C(C(=O)Nc2cccc(O)c2)=CC(c2cccs2)=NS1(=O)=O -9.31%, COc1ccc(C(=O)c2cn(Cc3ccccc3)c3ccccc3c2=O)cc1OC -15.2%, O=C(NCCc1nc2ccccc2n1Cc1ccccc1F)c1ccc(F)cc1 -15%, COc1ccc(N(C(=O)c2ccccc2C)S(=O)(=O)c2ccc(Cl)cc2)cc1 -9.96%, COc1cc(S(=O)(=O)NCCc2c(C)[nH]c3ccc(C)cc23)ccc1Br 2.57%, Nc1ncc(S(=O)(=O)NCc2ccccc2)cn1 -0.991%, Cc1cccc(N2CCN(C(=O)C3CCN(C(=O)c4cc5sccc5n4C)CC3)CC2C)c1 (stereo not given) -22.8%, COc1ccc(CN(C)c2ccc(-c3nc(-c4ccc(OC)c(OC)c4)no3)cc2[N+](=O)[O-])cc1 -4.47%, O=C(Nc1cc(Cl)cc(Cl)c1)c1cc(S(=O)(=O)NC2CCCC2)ccc1F -4.11%, CN1C(=O)c2cccc3c(S(=O)(=O)Nc4cccc(C(=O)O)c4)ccc1c23 -20.3%, CCOc1ccc(NC(=O)CN(Cc2ccccc2)S(=O)(=O)c2ccc3nc(C)sc3c2)cc1 -6.74%, CCOc1ccc(CCNC(=O)Cn2c(-c3cccs3)cc3ccccc32)cc1 -6.67%, COc1cn(CC(=O)Nc2cc(C)cc(C)c2)c(CN2CCCCC2)cc1=O -12.8%, CCC(C)S(=O)(=O)c1oc(-c2cccs2)nc1S(=O)(=O)c1ccccc1 (stereo not given) -16.6%, CCOc1ccccc1CNCc1c(C(=O)O)c(C)n(Cc2ccc(C)cc2)c1C -11.8%, CN1CCc2nc3sc(C(=O)c4ccc(F)cc4)c(N)c3cc2C1 -11.2%, COc1cccc(-c2nnc(SCC(=O)N(C)C3CCCCC3)o2)c1 -14.8%, Cc1cccc(NC(=O)c2oc3ccccc3c2NC(=O)c2cc(=O)c3ccccc3o2)c1 -14.1%, CCOc1ccc(N2CC(NC(=O)c3ccc(Cl)cc3)CC2=O)cc1 (stereo not given) -8.63%, CCN(CC)S(=O)(=O)c1ccc(OC)c(NC(=O)c2sc3ccccc3c2Cl)c1 2.74%, CN(c1ccc(F)cc1)S(=O)(=O)N1CCCC(C(=O)NCc2ccccc2Cl)C1 (stereo not given) -21.4%, Cc1ccc2c(c1)c1c(c(=O)n(Cc3ccccc3)c(=O)n1Cc1ccccc1F)n2C 1.63%, NC(CO)(CO)CO -19.1%, CNC(=O)CN1C(=O)COc2ccc(S(=O)(=O)N3CCCCCC3)cc21 -8.27%, CCOC(=O)N1CCc2c(sc3c2c(=O)n(Cc2ccccc2)c(=O)n3CC(=O)Nc2ccc(F)cc2)C1 -3.54%, COc1cccc(NC(=O)Cn2c(=O)n(Cc3ccc4c(c3)OCO4)c(=O)c3oc4ccccc4c32)c1 -14.7%, Cc1ccc(-n2ncc(C(=O)NCCN3CCN(C)CC3)c2C2CCN(C(=O)OC(C)(C)C)CC2)cc1C 0.0269%, COc1ccc(NC(=O)[C@H](Cc2ccccc2)N2Cc3ccccc3C2=O)cc1OC 12.1%, CCOc1ccc(CNC(=O)Cn2c(=O)c3cccn3c3cccnc32)cc1 -8.79%, COc1ccc2c(c1)c(N1CCCC1=O)c(C(=O)Nc1ccc(OC)c(Cl)c1)n2C -22.1%, CC(=O)c1cccc(NS(=O)(=O)c2c(C(=O)N3CCCCCC3)c(C)n(C)c2C)c1 -17.2%, Cc1ccc(S(=O)(=O)c2cn(Cc3ccccc3)c3cc(N4CCOCC4)c(F)cc3c2=O)cc1 -7.84%, CCc1ccc(CNC(=O)CCn2nc(C)c3c(C)n(-c4ccccc4)nc3c2=O)cc1 -16.7%, COc1cc(NC(=O)c2noc3c2CC(C)CC3)c(OC)cc1Cl (stereo not given) -14.2%, CCc1ccc(NC(=O)c2cc(S(=O)(=O)NC3CCCCCC3)ccc2F)cc1 -2.52%, Cc1nn(-c2ccccc2)c2c1N(CC(=O)N1CCN(c3ccc(Cl)cc3)CC1)C(=O)CS2 -8.05%, Cc1nn(-c2ccccc2)c2c1N(CCCC(=O)NC(C)c1ccccc1)C(=O)CS2 (stereo not given) -14%, Cc1nn2c(-c3ccccc3)cc(-c3ccccc3)nc2c1-c1ccc(Cl)cc1 -10.9%, COc1ccc(C(CC(=O)Nc2ncccc2C)N2Cc3ccccc3C2=O)cc1OC (stereo not given) 8.63%, O=C(Nc1ccccc1)c1cccc(N2CCCS2(=O)=O)c1 -15.1%, Cc1cc(C)n2nc(CNC(=O)c3ccc(Cl)cc3)nc2n1 -2.9%, COc1ccc(-n2c(SCCC(C)C)nc3sc4c(c3c2=O)CC(C(C)C)OC4)cc1 (stereo not given) -15.1%, CC1CCC(NC(=O)c2ccc(CSc3nc4ccncc4n3Cc3ccc(F)cc3)cc2)CC1 (stereo not given) -8.3%
